Measured values published in PubChem BioAssay AID1508642 (National Center for Advancing Translational Sciences (NCATS), 2021).
Screen size: about 43,000 compounds; about 200 (0.47%) were called active. Inconclusive results (about 12%) are left out. Calls follow the shape of the dose curve; as a rule, active = well fitted cell-killing curve with a large enough effect; inconclusive = small, poorly fitted or top-dose-only effect, or effect the other way; inactive = flat fitted curve, though single readings scatter. The list shows a part of the results.

test: Cell viability qHTS assay in S16 Pmp22-F2sN cells; conditions: S16 Pmp22-F2sN Schwann cells (luciferase reporters placed in the Pmp22 gene) viability, CellTiter-Glo, 24 h; series mostly up to 57.5 µM; activity change, negative = cytotoxicity: at the top concentration; also: nearly all actives have a fitted effect of over 65% in size
Summary of the method: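 S16 Schwann cells carrying the Pmp22-F2sN reporter, seeded in 1536-well format, were exposed to library compounds for 24 h at 37C. Viability was read as CellTiter-Glo luminescence after 15 min at room temperature.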
% is scaled to controls: 0 for no effect and ±100 for the full control effect.

Row | SMILES | activity change, negative = cytotoxicity
1 | CCOc1ccc(C(=O)Nc2ccc3nc(SCC(=O)N(C)c4ccccc4)sc3c2)cc1 | inactive: -33.9%
2 | CCOC(=O)c1cc(-c2ccc(OC)cc2)n(CCC(=O)Nc2ccc(OC)cc2OC)c1C | inactive: -10.8%
3 | CCOc1ccc(CNC(=O)C2CCN(Cc3cc4ccccc4n3Cc3ccccc3C)CC2)cc1 | inactive: 1.37%
4 | CC(C)CC(C(=O)NCCc1ccccc1)N1Cc2ccccc2C1=O (configuration not stated) | inactive: -11.5%
5 | CCc1ccc(NC(=O)CCCn2nc(C)c3c(C)n(-c4ccccc4)nc3c2=O)cc1 | inactive: -2.47%
6 | CCCSc1nnc2n(-c3ccc(OC)cc3)c(=O)c3c4c(sc3n12)COC(C(C)C)C4 (configuration not stated) | inactive: 21%
7 | Cc1nn(C(C)(C)C)c(OC(=O)c2cccc(F)c2)c1Sc1ccccc1 | inactive: -17.5%
8 | Cc1c(CNC2CCCCCC2)c(C(=O)O)c(C)n1Cc1ccc(F)cc1 | inactive: 14.7%
9 | CCc1ccc(CN(Cc2ccco2)C(=O)COc2ccc(Cl)cc2C)cc1 | inactive: -12.7%
10 | CC(=O)Nc1ccc2nc(SCCOc3ccccc3)sc2c1 | inactive: 13.2%
11 | Cc1ccc(NC(=O)C(=O)NCCCN2CCOCC2)cc1C | inactive: 9.94%
12 | Cc1cccc(NC(=O)C2(C)Cc3ccccc3C(=O)O2)c1 (configuration not stated) | inactive: 11.9%
13 | Cc1ccc2nc(N(Cc3cccnc3)C(=O)c3cccs3)sc2c1 | inactive: -18.7%
14 | CCCn1c(CCC(=O)Nc2cccc(CC)c2)nc2cccnc21 | inactive: 6.7%
15 | COc1ccc(-n2c(=O)c3sc4ccccc4c3n(CC(=O)NCc3ccccc3)c2=O)cc1 | inactive: -0.249%
16 | Cc1ccccc1CNC(=O)c1ccc(CS(=O)Cc2ccc(Cl)cc2)o1 (configuration not stated) | inactive: 14%
17 | O=[N+]([O-])c1cc(-c2nc(-c3ccccc3)no2)ccc1NCCc1ccccc1 | inactive: -6.03%
18 | CCOc1ccc(N2CC(c3nc4ccccc4n3Cc3cccc(C)c3)CC2=O)cc1 (configuration not stated) | inactive: -3.11%
19 | CCc1nc2c(cnn2-c2ccc(Cl)cc2)c(=O)n1-c1ccc(OC)c(Cl)c1 | inactive: 5.12%
20 | Cc1ccc(OCC(=O)Nc2cc(-c3cccc(C)c3)nn2-c2ccccc2)cc1 | inactive: 13.4%
21 | CCOc1ccccc1C(=O)Nc1cc2c(cc1N1CCOCC1)n(C)c(=O)n2C | inactive: -5.94%

Row | SMILES | activity change, negative = cytotoxicity
22 | Cc1ccc(CCNC(=O)c2ccc3c(c2)c(C)c(C)n3Cc2ccccc2)cc1 | inactive: -22.8%
23 | O=C(Nc1cccc(F)c1)[C@@H](c1ccccc1)N1Cc2ccccc2C1=O | inactive: 1.04%
24 | COc1ccc(Cl)cc1NC(=O)CSc1nc(-c2ccccc2)c2ccccc2n1 | inactive: 0.313%
25 | CCn1c(CC2C(=O)N(C)c3ccccc32)nc2ccccc2c1=O (configuration not stated) | inactive: 3.24%
26 | COc1ccc(NC(=O)CCN2CCN(CCO)CC2)cc1 | inactive: -7.46%
27 | CCN(c1cc(C)cc(C)c1)S(=O)(=O)c1nnc(NC(=O)c2ccco2)s1 | inactive: -4.09%
28 | CCOc1ccc(C(=O)Nc2ccc(-c3nc4ccccc4s3)c(C)c2)cc1OCC | inactive: 8.03%
29 | Cc1ccc(NC(=O)Cn2nnc(-c3nc(-c4ccc(Cl)cc4)no3)c2N)cc1C | inactive: 3.6%
30 | Cc1nc2c(C(=O)NCCc3ccccc3)c[nH]n2c(=O)c1Cc1ccc(F)cc1Cl | inactive: 8.8%
31 | CCCSc1ncc(Cl)c(C(=O)Nc2c(C(=O)c3ccc(F)cc3)oc3ccccc23)n1 | inactive: 15.6%
32 | COc1ccccc1N1CCN(C(=O)Cn2c(=O)n3nc(-c4cccc(C)c4)nc3c3ccccc32)CC1 | inactive: 9.53%
33 | COc1ccc(CCNC(=O)c2c(C)nn(-c3ccc(F)cc3)c2-n2cccc2)c(OC)c1OC | inactive: 10.3%
34 | CC(C)CSc1ccccc1NC(=O)c1sc2nc(-c3ccncc3)ccc2c1N | inactive: -1.02%
35 | CCOC(=O)c1c(NC(=O)C(C)Oc2ccc(Cl)c(C)c2)sc2c1CCCC2 (configuration not stated) | inactive: 5.2%
36 | O=C(Cn1cc(S(=O)(=O)Cc2ccccc2F)c2ccccc21)NCc1ccccc1Cl | inactive: -6.28%
37 | Cc1nn2c(=O)cc(COC(=O)c3ccc(NC(=O)c4cccs4)cc3)nc2s1 | inactive: -6.26%
38 | CCN(C(=O)Cn1nc(Cc2ccncc2)c2ccccc2c1=O)c1cccc(C(F)(F)F)c1 | inactive: 8.09%
39 | CC(C)Cn1c(=O)c2ccccc2n2c(CCC(=O)Nc3ccc(F)c(F)c3)nnc12 | inactive: 3.93%
40 | Cc1ccc(S(=O)(=O)N2CCC(C(=O)Nc3ccc(Oc4ccccc4)cc3)CC2)cc1 | inactive: -2.16%
41 | COc1ccccc1N1CCN(S(=O)(=O)c2ccc(-c3cnc(C4CC4)o3)cc2)CC1 | inactive: 8.34%
42 | Cc1cc(Cl)ccc1NC(=O)c1cc2ccccn2n1 | inactive: 10.9%

Row | SMILES | activity change, negative = cytotoxicity
43 | Cc1ccc(CNC(=O)CSC2=Nc3ccccc3C3=NC(C)C(=O)N23)cc1 (configuration not stated) | inactive: 1.63%
44 | Cc1ccc2occ(CC(=O)N3CCN(c4cccc(Cl)c4)CC3)c2c1 | inactive: -16.7%
45 | CCOc1ccccc1NC(=O)CN1CCN(S(=O)(=O)c2ccc(Br)cc2)CC1 | inactive: -1.77%
46 | CCS(=O)(=O)N1CCc2cc(C(=O)Nc3ccc(OC)cc3OC)ccc21 | inactive: 6.79%
47 | CCC1CCCCN1Cc1cn2c(-c3ccc(Br)cc3)nnc2s1 (configuration not stated) | inactive: 13.1%
48 | CC(=O)c1cccc(NC(=O)c2nc(-c3ccccc3)n(-c3cccc(C)c3)n2)c1 | inactive: -21.2%
49 | COc1c(Cl)cc(Cl)cc1CNCCSc1nnnn1C | inactive: -0.282%
50 | O=C(Nc1nc2n(n1)C(c1ccc(F)cc1)C=C(c1ccccc1)N2)c1cccc([N+](=O)[O-])c1 (configuration not stated) | inactive: -22.3%
51 | CCC(C)NC(=O)CSc1nc2cc3c(cc2c(=O)n1CCCCCC(=O)NCc1ccc(OC)cc1)OCO3 (configuration not stated) | inactive: 3.94%
52 | Cc1cccc(C(=O)Nc2cccc(OCc3cc(=O)n4ccccc4n3)c2)c1 | inactive: 12.7%
53 | CCc1cccc(NC(=O)CCS(=O)(=O)c2cc3c4c(c2)CCN4C(=O)CC3)c1 | inactive: -29.8%
54 | Cc1c(Cl)cccc1-n1nc(C)c2c(C)cc(=O)n(CC(=O)NCc3ccccc3)c21 | inactive: -2.92%
55 | COc1cc2c(cc1OC)C(COc1ccccc1OC)N(C(=O)c1ccccc1OC)CC2 (configuration not stated) | inactive: -8.29%
56 | Cc1cc(C)c(NC(=O)Cn2c(=O)n(Cc3ccccc3)c(=O)c3c(C)c(C(=O)N(C)C)sc32)c(C)c1 | inactive: 2.91%
57 | COc1cc2c(=O)c(S(=O)(=O)c3ccccc3)cn(CC(=O)Nc3ccccc3C)c2cc1OC | inactive: 18.7%
58 | Cc1ccc(NC(=O)Cn2nnc3sc4c(c3c2=O)CCCC4)c(C)c1 | inactive: -10.7%
59 | O=C(/C=C/c1ccc(Cl)cc1)Nc1nc(-c2cccs2)ns1 | inactive: 3.01%
60 | CCCCc1ccc(NC(=O)CSc2nnc3[nH]c(=O)cc(C)n23)cc1 | inactive: 4.79%
61 | CCCN1CCN(CCCNC(=O)c2ccc(CS(=O)c3ccc(OC)cc3)o2)CC1 (configuration not stated) | inactive: 4.2%
62 | CCCN(CCC)C(=O)CSc1nnc2cc(C)c3ccccc3n12 | inactive: 3.46%
